The supplement of paper PMC4466236
Whole data set: some 33,000 sequences, median “E-score (dimensionless, -0.5 to 0.5)” near -0.058, cut for the highest 2% near 0.35. The list shows a part of the results.

System: MvaT
Assay: PBM 8-mer E-score (mean of HK and ME arrays) (E-score (dimensionless, -0.5 to 0.5)); higher = stronger relative binding preference; most listed sequences are background and not binding sites
Experimental: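 Protein binding microarray: GST-tagged full-length MvaT (P. aeruginosa PAO1) bound to two universal double-stranded 60-mer arrays (ME and HK), each with a constant 25-mer primer and a variable 35-mer region covering all 8-mers. The 8-mer E-score (rank-based, range -0.5 to 0.5, >0.45 = specific binding) is the mean of the two arrays.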

Sequence | PBM 8-mer E-score
AGTAAACT | 0.14
AATGTTCT | 0.168
AGAGCATG | -0.164
ATCCCGAA | 0.0538
TAAATTGA | 0.321
TGCATACA | 0.1
CGGTACTA | -0.0157
GTAGTCTA | 0.0473
CTACTAAG | -0.00927
CCGCAACC | -0.0789
AGAGGGAA | -0.204
AATCGTTG | -0.0166
CGGCAGAG | -0.231
CACTGAGA | 0.0457
AAATGAGA | -0.00699
ACACATTC | 0.036
AAGTCATG | -0.1
AACCGGTT | -0.0432
AATGCCAT | 0.0557
TCCGCCGA | -0.148
AGAATTAA | 0.301
AAGCAGCC | -0.138
GGAAACGA | -0.0256
GCAGGTCA | -0.0436
CAGGTCAG | -0.167

Sequence | PBM 8-mer E-score
ACACAGAA | 0.0462
AACCGGGT | -0.143
AAGAACCT | -0.0904
CCCGAGCG | -0.237
ACGGCAAC | -0.107
GATTATGC | 0.148
GATATAAA | 0.344
ACCCTTGC | -0.0785
ACACCACA | 0.0813
CGTTGAGA | -0.214
ACAACTTG | 0.237
AGGCTTTC | -0.024
CCTAATGA | -0.254
ACTATTGG | 0.165
CTATGTCA | -0.0232
AGAGTGAC | -0.128
GTAATTAA | 0.343
GGTATCTA | 0.0244
CTAACGTA | 0.096
ACGCTCTC | -0.273
TCATATGA | 0.204
CGAGATAA | 0.0958
ATAGGTGC | 0.0145
TCGTAGAA | -0.112
AGGCATAG | -0.161

Sequence | PBM 8-mer E-score
CATTACAG | 0.0354
CCCCGGCA | -0.121
AGCACCTA | -0.0609
CATGACGG | -0.158
CGCCATCA | -0.12
GGGGTGTA | -0.0911
CGGGTTAA | 0.0999
AAAAGGGG | -0.111
GGAAATAA | 0.31
ATCTTCGC | -0.113
ATACAGTC | -0.0525
ACTGTATC | -0.0224
AACGCACC | -0.149
ATGGAATG | -0.0592
TATCCAGA | 0.0481
CCGGGCCG | -0.314
CACCTTAC | 0.0325
AGGCTCTG | -0.239
TAGAAGGA | 0.0517
AACAGAAC | -0.0295
AAATGGTG | -0.107
TCAACTGA | 0.0767
AGGATAGC | -0.177
ACCGTCTG | -0.163
ACACATGA | 0.0834

Sequence | PBM 8-mer E-score
ATAGCGTG | -0.117
ATTGATTC | 0.19
CACTACTC | -0.00541
ATTGGGAG | -0.0538
ACCAAAGA | 0.0705
TAGCAATA | 0.226
CGTATAGC | 0.0225
AGAACAAT | 0.249
GTCGTAAA | -0.0357
CCAACACC | -0.0275
AAAGTGTG | 0.0346
AAAACTCC | 0.0164
CACGATAG | -0.0302
ACACGGTC | -0.206
AGTTACAG | 0.182
GCAGTCAA | 0.0481
AGCTGGGC | -0.183
AGCGGAAT | -0.0784
CGAACGCC | -0.224
GATCATTA | 0.172
CCAAATGA | 0.125
CTAAAAAG | 0.00374
CAGTGTCG | -0.197
GCCAAGGC | -0.237
AAATTCGA | 0.101

Sequence | PBM 8-mer E-score
GGCATTGA | -0.133
AGATCGAC | -0.122
TCCACACA | -0.0309
AATATTTA | 0.45
ATGCACTG | -0.0096
AGAGCAGA | -0.011
ATATGTAC | 0.368
CGCGCACC | -0.169
CGAATTCG | 0.112
GAACGCGA | -0.0383
AGACGGAT | -0.245
ATAGAAAA | 0.173
AAGCCGCT | -0.232
CAGAGGCA | -0.164
ACCGTATA | 0.161
CATAATAA | 0.334
AATTGCGT | 0.192
AGATACTG | 0.0147
ACTCTCAC | -0.0116
AATGACGA | -0.0327
AGCGCTCA | -0.124
CCTTGTCA | -0.218
AAATGTGA | 0.0714
CCTGAATA | 0.0626
CACACAGC | 0.0806

Sequence | PBM 8-mer E-score
AATATTGC | 0.307
GAAGCACC | -0.126
ATCTTGCA | 0.202
CCGGACAC | -0.138
GACTACTC | -0.0717
CCGTGCAG | -0.147
CAAAGATA | 0.178
TACTACCA | 0.148
ACGTGTAC | -0.114
AGTATAAT | 0.336
CTCGCCGA | -0.192
ATCGGATC | -0.129
AGGCGTTA | 0.0311
CAATCCAA | -0.0468
GCATATCC | -0.0669
CGTCCAGA | -0.16
TCCCAGGA | -0.103
GATAGAAA | 0.105
CTAGATAG | -0.103
ATACGGAA | 0.0762
ACCTGCCT | -0.253
CCGATCGA | -0.111
AGTCACGC | -0.107
AAATCTTC | 0.131
GAATTCCA | 0.0476

Sequence | PBM 8-mer E-score
ACTTGGGC | -0.231
CCTAAGAG | -0.0279
AGAGAACC | -0.192
TGGCCCCA | -0.182
ACAGCGAC | -0.0538
AGGTAGAG | -0.12
CGGCAGTA | -0.0713
ATTCCCGG | 1.53e-05
GCTCAAGC | -0.303
TTAAGAAA | 0.242
AAAAATAA | 0.403
CACGTGGG | -0.207
AGAAAATA | 0.259
CCCGGTCC | -0.334
AAGCTTGC | -0.146
GGACGCTA | -0.318
ACCGCGAC | -0.178
CCGTAGAA | 0.0349
GGCCCATA | 0.0568
CAAGCGTA | -0.209
CACCTCGC | -0.076
AGTTATTG | 0.312
